The results in this text go back to the supplement of paper PMC4166925.

± gives the standard deviation of the averaged measurements. The full ranking holds about 33,000 sequences; the median of “E-score (dimensionless, -0.5 to 0.5)” is about -0.046, and the highest 2% start at about 0.36. This is one part of the list.

This assay concerns T1, SpTbr T-box DNA-binding domain (GST fusion).
T1 sequence: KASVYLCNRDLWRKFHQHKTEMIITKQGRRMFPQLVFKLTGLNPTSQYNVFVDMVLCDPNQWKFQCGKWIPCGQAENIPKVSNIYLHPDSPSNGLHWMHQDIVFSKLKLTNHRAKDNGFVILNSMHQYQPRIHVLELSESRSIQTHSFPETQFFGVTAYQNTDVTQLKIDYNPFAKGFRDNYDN
Nature of the assay: PBM E-score of 8-mer (E-score (dimensionless, -0.5 to 0.5)); Tbr is Tbrain of the sea star Patiria miniata (Pm) or the sea urchin Strongylocentrotus purpuratus (Sp); higher = stronger binding preference; most listed sequences are background and not binding sites. Particulars: the construct has about 5 more residues each side. In outline: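 GST-fused Tbr T-box DNA-binding domains (the whole T-box plus about five flanking residues) were expressed in BL21 E. coli at 20 °C and purified by glutathione affinity chromatography. Universal Agilent oligonucleotide arrays were made double-stranded by primer extension, incubated with 200 nM protein in PBS (pH 7.5), then scanned and quantified. Every ungapped 8-mer was scored from probe intensities. The Universal PBM Analysis Suite gave each word an enrichment E-score, averaged over duplicate arrays.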
Consider AAATTCTG, for which the “PBM E-score of 8-mer” value is -0.136 ± 0.06.
With CAACTTCC the figure was -0.0224 ± 0.038; with ACCTAGTG, 0.2 ± 0.013; with AGAGACTA, -0.106 ± 0.01.
With CACAGCTC the figure was 0.248 ± 0.034; with CATGTGGG, 0.0753 ± 0.0088.
With AACGGTTC the figure was 0.12 ± 0.019; with CACAGTGA, 0.207 ± 0.049; with ACCTGTTC, 0.193 ± 0.013.
Turning to AAAGACAA, the “PBM E-score of 8-mer” value is -0.162 ± 0.0039.
Consider CCGGCAAA, for which the “PBM E-score of 8-mer” value was -0.182 ± 0.08.
On to ACACCATC, for which the “PBM E-score of 8-mer” value amounted to 0.3674 ± 0.0022.
For the sequence AGCACAAT, the “PBM E-score of 8-mer” value is 0.0742 ± 0.023.
Under GTAATAAA stands -0.155 ± 0.051; under GTCAGTTA, 0.0997 ± 0.035.
For ACCGACGT, the “PBM E-score of 8-mer” value was -0.1251 ± 0.00093.
In the case of ATCTACTG, the “PBM E-score of 8-mer” value was -0.163 ± 0.0056.
Under GCACGTTA stands 0.202 ± 0.041; under CCCAGGCG, -0.0389 ± 0.089; under CTCTTCTC, -0.0569 ± 0.048.
CATTCACA: the “PBM E-score of 8-mer” value is 0.427 ± 0.014.
Under ACTTGCTC stands 0.06898 ± 0.00037; under ACCATAAT, 0.0573 ± 0.041; under CATGTTTA, -0.0355 ± 0.09.
Take GGAACTGA: the “PBM E-score of 8-mer” value is -0.00643 ± 0.048.
Under ACGGATAG stands -0.0189 ± 0.0053; under ACGGCCGA, -0.293 ± 0.012; under CAGCGTCG, -0.0615 ± 0.045.
With ATGTAAGG the figure was -0.121 ± 0.051; with CCAGAGCC, -0.186 ± 0.031; with CGCTTCTC, 0.0904 ± 0.024.
In the case of GACTAATA, the “PBM E-score of 8-mer” value was -0.1458 ± 0.0012.
With GATCTATA the figure was 0.0294 ± 0.074; with ACCTGTCC, 0.151 ± 0.0082.
With CTGGCCAC the figure was 0.0324 ± 0.095; with CAAACCCG, 0.0374 ± 0.013; with AGTTAGCC, -0.128 ± 0.013.
Under TAGAAATA stands -0.238 ± 0.017; under AGTGAACA, 0.175 ± 0.0043.
For TGGTCGAA, the “PBM E-score of 8-mer” value is -0.131 ± 0.049.
Under GATTTGTA stands -0.145 ± 0.019.
Take GTTGTTGA: the “PBM E-score of 8-mer” value amounted to 0.239 ± 0.044.
With CGCTTTAG the figure was -0.0469 ± 0.0032; with AGAATGCC, -0.229 ± 0.038; with GAAATGAC, 0.12 ± 0.065.
Under AATTTTGC stands -0.00565 ± 0.0049; under AAGCCCTG, -0.226 ± 0.021.
Take AATATGCG: the “PBM E-score of 8-mer” value was 0.116 ± 0.052.
Under GCAGGACC stands -0.0831 ± 0.1.
For CCACTATA, the “PBM E-score of 8-mer” value was 0.0162 ± 0.05.
As to GTTTCCGA, the “PBM E-score of 8-mer” value was -0.0578 ± 0.048.
Under GCCGGAGC stands -0.199 ± 0.066.
For CCCATTCG, the “PBM E-score of 8-mer” value is -0.14 ± 0.0048.
Under CAGCATCG stands 0.0113 ± 0.0051; under AGGGATTC, -0.18 ± 0.03; under CGCTGGCA, 0.211 ± 0.023.
Under CCATATGC stands -0.0336 ± 0.025; under CCTATTAG, -0.06 ± 0.066; under CCCCATAA, -0.273 ± 0.024.
For the sequence ACTCGCCG, the “PBM E-score of 8-mer” value turned out to be 0.131 ± 0.01.
With CATCCCGC, the “PBM E-score of 8-mer” value was -0.132 ± 0.064.
Under CAGACTCA stands -0.0949 ± 0.051; under GTACACCA, -0.0592 ± 0.12; under ATACGAGG, -0.3792 ± 0.0018.
With AGCCGCGA the figure was 0.276 ± 0.029; with GGACGATA, 0.0235 ± 0.059; with CGTCGCGC, 0.2094 ± 0.0019.
Consider GATTCCGA, for which the “PBM E-score of 8-mer” value is -0.0984 ± 0.059.
For AAACTAGT, the “PBM E-score of 8-mer” value was -0.153 ± 0.08.
With ATGAGCGC the figure was -0.145 ± 0.025.
Under AAAGATTA stands -0.192 ± 0.033; under CGCTCTTC, -0.132 ± 0.037.
Under GGACAGAA stands -0.164 ± 0.067.
For TCGCCTAA, the “PBM E-score of 8-mer” value was -0.0189 ± 0.12.
With CCTAACAG the figure was 0.0988 ± 0.11; with ACGTTATG, 0.082 ± 0.013; with CATGGCTA, -0.27 ± 0.059.
Consider GCTTATTA, for which the “PBM E-score of 8-mer” value was -0.086 ± 0.061.
Under AACTCGAA stands -0.00982 ± 0.018; under AGCTCATC, -0.24 ± 0.004; under CGCAGTAC, 0.115 ± 0.007.
GACGGGCA: the “PBM E-score of 8-mer” value is -0.2934 ± 0.0011.
With CGTTCAAC the figure was -0.173 ± 0.047; with CTTGCTGC, -0.0321 ± 0.069; with GATGCAAC, -0.143 ± 0.02.
Take CTAGATCA: the “PBM E-score of 8-mer” value was -0.142 ± 0.064.
Under ACCGTGAG stands 0.179 ± 0.03.
With TTAAGGAA the figure was 0.0228 ± 0.052; with ACACGAAG, 0.0299 ± 0.029; with AGGAAAGG, -0.0689 ± 0.11.
Under AAATGTTC stands -0.0543 ± 0.022; under CTTTGAGA, -0.0749 ± 0.054; under ATTCCGCA, -0.0472 ± 0.016.
As to AACCCATG, the “PBM E-score of 8-mer” value was -0.0687 ± 0.051.
With CCCCCTTC the figure was -0.173 ± 0.023; with CAACATTC, 0.0397 ± 0.048; with TGCCACAA, 0.117 ± 0.015.
With CGTTACGC the figure was -0.0437 ± 0.0086; with CTAAAAGC, -0.0587 ± 0.058.
Consider AGCGCTTC, for which the “PBM E-score of 8-mer” value is -0.0142 ± 0.07.
As to CCCGAACG, the “PBM E-score of 8-mer” value was -0.228 ± 0.019.
As for CAAAATGG, the “PBM E-score of 8-mer” value is -0.184 ± 0.036.
With TAACGGAA the figure was -0.0621 ± 0.14; with CACTTGGG, 0.295 ± 0.032; with ACCCGGGT, 0.0256 ± 0.038.
AAGAGCAT: the “PBM E-score of 8-mer” value was -0.115 ± 0.075.
Under ACATGGTG stands 0.275 ± 0.022.
Take ACGGGACC: the “PBM E-score of 8-mer” value is -0.226 ± 0.0053.
With CTCGAGGA the figure was 0.126 ± 0.0096.
